# In PubChem BioAssay AID1671188 (National Center for Advancing Translational Sciences (NCATS), 2021):
# Out of some 100,000 compounds screened, about 250 (0.25%) were called active. The shares of active, inactive and inconclusive entries below differ from those in the screen. Calls follow the shape of the dose curve; as a rule, active = well fitted inhibition curve with a large enough effect; inconclusive = small, poorly fitted or top-dose-only effect; inactive = flat fitted curve, though single readings scatter. Potencies of inconclusive entries are left out as doubtful fits.
# Biological target: Alanine aminotransferase 2 (Homo sapiens) (UniProt Q8TD30)
# Assay: Primary qHTS assay for inhibitors of Glutamate pyruvate transaminase 2 (GPT2); also: nearly all actives have a fitted effect of over 60% in size
# Details: Recombinant GPT2, coupled pyruvate oxidase/HRP Amplex Red fluorescence; activity change, negative = inhibition: at 57.7 µM (top of the series) unless noted; series mostly up to 57.7 µM
# In short: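 Recombinant GPT2 (10ng/uL) with 250uM a-KG and 2mM L-alanine, 30 min at room temperature, in HEPES pH 7.5 buffer. Pyruvate detected by pyruvate oxidase/HRP/Amplex Red fluorescence after 30 min in the dark; AOA (50uM) as positive control.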
# % is scaled to controls: 0 for no effect and ±100 for the full control effect; potency is read from the fitted curve at half-maximal effect; tags tell the direction and shape of the fitted curve.
# Chain of UniProt Q8TD30 (Q8TD30 whole entry, looked up): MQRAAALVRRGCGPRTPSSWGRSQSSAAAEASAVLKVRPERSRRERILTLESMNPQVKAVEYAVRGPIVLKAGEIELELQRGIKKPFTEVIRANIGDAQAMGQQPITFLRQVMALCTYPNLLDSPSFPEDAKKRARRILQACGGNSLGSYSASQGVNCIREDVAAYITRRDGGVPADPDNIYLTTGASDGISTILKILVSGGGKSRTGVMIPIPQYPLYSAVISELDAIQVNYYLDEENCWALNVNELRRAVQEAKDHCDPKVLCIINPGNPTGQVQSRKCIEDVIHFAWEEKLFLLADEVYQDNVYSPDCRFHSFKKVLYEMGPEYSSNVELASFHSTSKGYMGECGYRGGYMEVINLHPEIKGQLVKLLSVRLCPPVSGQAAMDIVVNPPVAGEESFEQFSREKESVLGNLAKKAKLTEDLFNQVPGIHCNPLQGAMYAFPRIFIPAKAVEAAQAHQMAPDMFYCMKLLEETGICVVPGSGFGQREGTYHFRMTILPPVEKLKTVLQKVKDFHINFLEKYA
Compound,"activity change, negative = inhibition",Potency,outcome
Cc1cc2cc(-c3c(C)noc3C)nc(NCCN(C)C)c2o1,inactive: 4.77% [at 88.5 µM],,
O=C1NCCCCCCN(C(=O)C2CC=CC2)[C@H]2C[C@H](c3nc(Cc4ccccc4)no3)C[C@@H]12,,"inconclusive [inhibitor, partial curve, poor fit]",
COc1cccc(C(=O)N2CCC3(CC2)NC(=O)N(c2cccc(F)c2)N3)c1OC,,"inconclusive [inhibitor, single point]",
COc1ccc(N2CCC(N3CCC4(CC(=O)NC4=O)C3)CC2)cc1 (centres undefined),,"inconclusive [inhibitor, single point]",
O=C1NCCCCCCN(C(=O)C2(c3ccccc3)CC2)[C@H]2CCCC[C@@H]12,,"inconclusive [inhibitor, single point]",
O=C(NC1CCCCC1)c1ccc2nnc(CC3CC3)n2c1,,,inactive [at 88.5 µM]
CCCCOC(=O)N1CCC(N2CCCC(C(=O)N3CCOCC3)C2)CC1 (centres undefined),,,inactive [at 11.5 µM]
COc1ccc(NC(=O)C2(C)COCc3cnc(Nc4ccccc4)nc32)cn1 (centres undefined),,"inconclusive [inhibitor, single point]",
c1cncc(COC2CCN(c3ncncn3)CC2)c1,,,inactive
Cc1ccc(C2=NC3(CCN(C(=O)c4ccc(N(C)C)cc4)CC3)ON2)cc1,,,inactive
COCCN1CC(C(=O)N(C)Cc2sccc2C)CCC1=O (centres undefined),,"inconclusive [inhibitor, full curve, poor fit]",
COC(=O)NC1CCN(c2nc3ncccc3o2)C1 (centres undefined),,"inconclusive [inhibitor, single point]",
CCCn1cc2c3c(cccc31)CN(C(=O)c1cccc(C#N)c1)CC2,,,inactive
CCCCc1nn(CC(=O)NCc2nc3c(s2)CCCC3)c(=O)n1CC,,"inconclusive [inhibitor, partial curve, poor fit]",
Cn1cccc1CN1CCC(n2cc[nH]c2=O)CC1,,"inconclusive [inhibitor, full curve, poor fit]",
CC(=O)N1CCN(C(=O)C2CCCCN2Cc2ccc(-c3ccsc3)cc2)CC1 (centres undefined),,"inconclusive [inhibitor, partial curve, poor fit]",
O=[S+]([O-])(c1cccs1)N1CCc2nc(C3CC3)nc(-c3ccc(Cl)cc3)c2CC1,,"inconclusive [inhibitor, single point]",
Cc1cc(C(=O)N2CCOC[C@H](Oc3cccnc3)C2)c(C(F)(F)F)o1,,"inconclusive [inhibitor, single point]",
O=C(CC1CCOCC1)N1CCN(Cc2ccccc2F)CC1,,,inactive
